In patent publication US8440810B2, “Riboswitches, methods for their use, and compositions for use with riboswitches” (Yale University, priority 2002, dated 2013):
Residues, ends and D or L forms follow the SMILES beside them.

Tests used:
179 lysC RNA = experiment: In-line probing of 179 lysC RNA; conditions: for structural modulation of the RNA: 100 μM analog
251 yitJ RNA = assay type: binding, B. subtilis

NCCCC[C@@H](N)C(=O)O [D-lysine]
structural modulation of the RNA (179 lysC RNA): does not undergo structural modulation
structural modulation of the RNA after acid pretreatment of the compound (179 lysC RNA; pretreatment with 6 N HCl at 115° C. for 23 hr): intermediate level of structural modulation

NCCCCC[C@H](N)C(=O)O [L-α-homolysine]
structural modulation of the RNA (179 lysC RNA): failures

C[S+](CC[C@H](N)C(=O)O)C[C@H]1O[C@@H](n2cnc3c(N)ncnc32)[C@H](O)[C@@H]1O (some centres unmarked) [SAM, S-adenosylmethionine]
structural modulation of the RNA (251 yitJ RNA): undergoes conformational modulation

C[C@H](N)C(=O)N[C@@H](C)C(=O)O [ala-ala] (H-Ala-Ala-OH)
structural modulation of the RNA (179 lysC RNA): does not undergo allosteric modulation

C[C@H](N)C(=O)N[C@@H](CCCCN)C(=O)O [ala-lys] (H-Ala-Lys-OH)
structural modulation of the RNA (179 lysC RNA): does not undergo allosteric modulation

C[C@H](NC(=O)[C@@H](N)CCCCN)C(=O)O [lys-ala] (H-Lys-Ala-OH)
structural modulation of the RNA (179 lysC RNA): does not undergo allosteric modulation

NCCCC[C@H](NC(=O)[C@@H](N)CCCCN)C(=O)O [lys-lys]
structural modulation of the RNA (179 lysC RNA): does not undergo allosteric modulation
